In PubChem BioAssay AID485281 (National Center for Advancing Translational Sciences (NCATS), 2010):
Out of some 350,000 compounds screened, about 260 (0.074%) were called active. The inconclusive results got no clear call from the source; some entries with a clear call stand among them for comparison. Calls come from the whole dose curve; as a rule, active = well fitted inhibition curve with a large enough effect; inconclusive = small, poorly fitted or top-dose-only effect; inactive = no such curve, though single readings can be large or run the other way. Where the call is inconclusive, the potency comes from a doubtful curve fit.

target: Ferritin light chain (Equus caballus) (UniProt P02791); assay: qHTS Assay for Identification of Novel General Anesthetics; details: apoferritin/1-aminoanthracene competitive binding, fluorescence; activity change, negative = displacement: at 77.5 µM (top of the series); note: nearly all actives have a fitted effect of over 20% in size
UniProt P02791, sequence (P02791 whole entry, looked up): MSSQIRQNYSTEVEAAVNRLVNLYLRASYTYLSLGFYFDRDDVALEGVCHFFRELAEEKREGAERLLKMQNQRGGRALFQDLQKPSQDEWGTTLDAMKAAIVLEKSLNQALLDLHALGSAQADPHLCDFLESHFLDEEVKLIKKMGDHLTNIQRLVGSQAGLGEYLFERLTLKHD
Summary of the method: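 Probe: 1-aminoanthracene (50% saturated, PBS). Protein: horse-spleen apoferritin, 10 uM. Incubation: 10 min, room temperature. Detection: 380 nm excitation, 535 nm emission. Analysis: normalized response, four-parameter Hill.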
% is set by controls: 0 for no effect and ±100 for the full control effect; potency is the fitted concentration of half-maximal effect; tags give direction and shape of the fitted curve.

Row | Compound | Potency | activity change, negative = displacement
1 | Clc1ccc(OCCCc2nc(-c3cccnc3)no2)c(Cl)c1 | inconclusive: 44.7 µM [inhibitor, single point] | 
2 | Cn1c(-[n+]2c(-c3ccccc3)cc(-c3ccccc3)cc2-c2ccccc2)nc2cc([N+](=O)[O-])ccc21 | inconclusive: 28.2 µM [inhibitor, partial curve] | 
3 | Cc1cccc(Nc2nc(N)nc(CN3CCN(c4ccc(F)cc4)CC3)n2)c1 | inconclusive: 35.5 µM [inhibitor, single point] | 
4 | COC(=O)c1c(NC(=O)/C=C/C(=O)O)sc(Cc2ccccc2)c1C | inconclusive: 28.2 µM [inhibitor, single point] | 
5 | CCc1ccc(C(=O)COC(=O)c2ccco2)cc1 | inconclusive: 20 µM [inhibitor, partial curve] | 
6 | CC(/C=C/c1ccco1)=N\NC(=O)COc1ccc(C)c(C)c1 | inconclusive: 28.2 µM [inhibitor, partial curve] | 
7 | Cc1ccc(S(=O)(=O)c2nc(NCc3ccc4c(c3)OCO4)sc2Cl)cc1 | inconclusive: 3.55 µM [inhibitor, full curve] | 
8 | CC1CCN(C(=O)C2Cc3ccccc3CN2S(=O)(=O)c2ccc(F)cc2)CC1 (centres undefined) | inconclusive: 35.5 µM [inhibitor, partial curve] | 
9 | O=C(COC(=O)/C=C/c1cccs1)NC1CC1 | inactive | 
10 | O=C(COc1ccc(Br)cc1Cl)c1ccc[nH]1 | inconclusive: 25.1 µM [inhibitor, partial curve] | 
11 | CNC(=S)NCCCCc1cnc[nH]1 | inactive | 
12 | O=C(CNC(=O)c1cccs1)N/N=C/c1c[nH]c2ccccc12 | inconclusive: 15.8 µM [inhibitor, partial curve] | 
13 | c1ccc(CSC2=NCCS2)cc1 | inconclusive: 17.8 µM [inhibitor, partial curve] | 
14 | CN(C)CCCNS(=O)(=O)c1ccc(Oc2ncc(C(F)(F)F)cc2Cl)cc1 | inconclusive: 39.8 µM [inhibitor, single point] | 
15 | O=C1c2ccccc2S(=O)(=O)N1Cc1ccccc1[N+](=O)[O-] | inconclusive: 25.1 µM [inhibitor, partial curve] | 
16 | Cn1cc(S(=O)(=O)NCCc2ccccc2)c(=O)n(C)c1=O | inactive | 
17 | CCOC(=O)N1CCC(n2c(SCC(=O)N3CCCC3)nc3ccccc3c2=O)CC1 | inactive | 
18 | O=C1c2ccccc2C(=O)N1Cc1nc2ccccc2o1 | inconclusive: 44.7 µM [inhibitor, single point] | 
19 | COc1cccc(/C=N\NC(=O)Cn2nnc3ccccc32)c1O | inconclusive: 28.2 µM [inhibitor, partial curve] | 
20 | O=C(CCNc1cccc(Cl)c1)c1cccs1 | inconclusive: 14.1 µM [inhibitor, partial curve] | 
21 | COc1ccc(-c2nnc(-c3cccs3)o2)cc1OC | inactive | 
22 | Cc1ccc(C(C(=O)NC(C)(C)C)N(CC2CCCO2)C(=O)Cn2nnc(-c3ccc(C)o3)n2)cc1 (centres undefined) | inconclusive: 11.2 µM [inhibitor, partial curve] | 

Row | Compound | Potency | activity change, negative = displacement
23 | Cc1cc(C=O)c(C)n1-c1ccc(N2CCCC2)c([N+](=O)[O-])c1 | inconclusive: 3.98 µM [inhibitor, full curve, poor fit] | 
24 | Cc1ccc(CNc2ccc(CNc3ncn[nH]3)cc2)cc1 | inconclusive: 12.6 µM [inhibitor, partial curve] | 
25 | CCS(=O)(=O)c1ncc(N(Cc2ccco2)Cc2sccc2C)c(C(=O)Nc2cc(C)ccc2C)n1 | inconclusive: 14.1 µM [inhibitor, partial curve] | 
26 | O=C(COC(=O)c1cccs1)NC12CC3CC(CC(C3)C1)C2 | inconclusive: 50.1 µM [inhibitor, single point] | 
27 | COC(=O)CSc1nnc([C@H](Cc2ccccc2)NC(=O)OC(C)(C)C)o1 | inactive | 
28 | COc1ccc(CCNC(=S)NC(=O)c2cccc([N+](=O)[O-])c2)cc1OC | inconclusive: 35.5 µM [inhibitor, partial curve] | 
29 | Cc1ccccc1NC(=O)C(Cl)=C(Cl)Cl | inconclusive: 31.6 µM [inhibitor, single point] | 
30 | CCOC(=O)c1c(NC(=O)c2ccoc2C)sc(C(=O)N(C)C)c1C | inconclusive: 39.8 µM [inhibitor, partial curve] | 
31 | COCCn1c(SCC(=O)Nc2ccc(F)c(Cl)c2)nc2c(oc3ccccc32)c1=O | inactive | 
32 | C/C(=N\NC(=O)CNC(=O)c1cccs1)c1ccc(Cl)c(Cl)c1 | inconclusive: 15.8 µM [inhibitor, partial curve] | 
33 | Cc1ccc(C(=O)Nc2ccccc2Oc2ccccc2)cc1[N+](=O)[O-] | inconclusive: 22.4 µM [inhibitor, partial curve] | 
34 | CC(C)(C)NC(=O)c1ccc(COc2ccc(Cl)cc2Cl)o1 | inconclusive: 35.5 µM [inhibitor, partial curve] | 
35 | CC(=O)c1cccc(-n2c(CCC(=O)O)ccc2-c2cccs2)c1 | inactive | 
36 | CSc1ccc(/C=N/n2c(COc3ccccc3)n[nH]c2=S)cc1 | inconclusive: 12.6 µM [inhibitor, partial curve] | 
37 | FC(F)(F)c1nc2ccccc2n2c(-c3ccc(Cl)cc3Cl)nnc12 | inconclusive: 44.7 µM [inhibitor, single point] | 
38 | Cc1ccc(CNC(=O)CCSCc2cccc(F)c2)cc1 | inconclusive: 25.1 µM [inhibitor, single point] | 
39 | CCc1ccc(OCC(=O)N/N=C(\C)c2ccc3c(c2)OCCO3)cc1 | inconclusive: 44.7 µM [inhibitor, single point] | 
40 | NC(=O)c1ccc(NCCc2ccccc2)c([N+](=O)[O-])c1 | inconclusive: 28.2 µM [inhibitor, partial curve] | 
41 | O=C1NC2(CCCCC2)C(=O)N1Cc1cccc(C(F)(F)F)c1 | inconclusive: 20 µM [inhibitor, partial curve] | 
42 | CCCn1c(C(C)Nc2nc(-c3cc(Cl)c(N)c(Cl)c3)cs2)nc2cc(Cl)c(N3CCCCC3)cc21 (centres undefined) | inconclusive: 14.1 µM [inhibitor, partial curve] | 
43 | CCOc1ccc(C(=O)OCc2cc(=O)n3nc(C4CCCCC4)sc3n2)cc1 | inconclusive: 35.5 µM [inhibitor, single point] | 
44 | Cc1ccc(S(=O)(=O)N(CCCO)CC(O)CON=C2c3ccccc3-c3ccccc32)cc1 (centres undefined) | inconclusive: 35.5 µM [inhibitor, partial curve] | 

Row | Compound | Potency | activity change, negative = displacement
45 | COc1cccc(C(=O)N2CCN(C(=O)c3cccc(F)c3)CC2)c1 | inactive | 
46 | CCCCC(CC)C(=O)Nc1cc([N+](=O)[O-])ccc1F (centres undefined) | inconclusive: 15.8 µM [inhibitor, partial curve] | 
47 | Cc1ccc(NS(=O)(=O)c2ccc(OCC(=O)Nc3cccc([N+](=O)[O-])c3)c(C)c2)cc1 | inconclusive: 14.1 µM [inhibitor, partial curve] | 
48 | Cn1c(SCC(=O)c2ccc(-c3ccccc3)cc2)nnc1-c1ccco1 | inconclusive: 35.5 µM [inhibitor, partial curve] | 
49 | Cn1c(Nc2cccc(Cl)c2)nc2ccccc21 | inconclusive: 15.8 µM [inhibitor, partial curve] | 
50 | CCN(c1cccc(C)c1)S(=O)(=O)c1nnc(NC(=O)c2cccs2)s1 | inconclusive: 14.1 µM [inhibitor, partial curve] | 
51 | COCCNC(=O)/C(C#N)=C/c1cc(C(C)C)c(OC)cc1C | inconclusive: 31.6 µM [inhibitor, single point] | 
52 | CC(C)Oc1ccc(C2c3c(oc4ccccc4c3=O)C(=O)N2CCCN2CCOCC2)cc1 (centres undefined) | inconclusive: 20 µM [inhibitor, partial curve] | 
53 | CO[C@@H]1COC(=O)[C@H](C)NC(=O)C/C=C\[C@@H](C)[C@H](OC)COC(=O)[C@H](C)NC(=O)C/C=C\[C@H]1C |  | inactive: -2.21% [at 15.3 µM]
54 | CS(=O)(=O)N(CC(=O)N1CCN(c2ccccc2)CC1)c1cc(C(F)(F)F)ccc1Cl | inconclusive: 28.2 µM [inhibitor, partial curve] | 
55 | COc1ccnc2c1c(=O)n(Cc1cccc(F)c1)c(=O)n2C | inconclusive: 56.2 µM [inhibitor, single point] | 
56 | COc1ccccc1N1C(=O)CC(Nc2ccc(N3CCOCC3)cc2)C1=O (centres undefined) | inconclusive: 20 µM [inhibitor, partial curve] | 
57 | CC(C)(C)c1ccc(-c2nc(C=O)c3ccccn23)cc1 | inconclusive: 35.5 µM [inhibitor, partial curve] | 
58 | COc1ccccc1NC(=O)CSc1nc2c(oc3ccccc32)c(=O)n1-c1ccc(C)cc1 | inactive | 
59 | Cc1ccc(OCc2n[nH]c(=S)n2-c2ccc(Br)cc2)cc1 | inconclusive: 56.2 µM [inhibitor, single point] | 
60 | C=CCNC(=O)C(C#N)c1nc2ccccc2nc1N1CCN(Cc2ccccc2)CC1 (centres undefined) | inconclusive: 0.316 µM [inhibitor, full curve, poor fit] | 
61 | O=C1C2C3C=CC(C4CC34)C2C(=O)N1Cc1ccco1 (centres undefined) | inconclusive: 6.31 µM [inhibitor, partial curve] | 
62 | COc1ccc(C2CC(c3ccc(OC)cc3)n3nc(NC(=O)c4ccco4)nc3N2)cc1 (centres undefined) | inconclusive: 31.6 µM [inhibitor, partial curve] | 
63 | CC1=CC(C)(C)N(C(=O)c2ccccc2)c2ccccc21 | inconclusive: 56.2 µM [inhibitor, single point] | 
64 | O=C(NC1CCCc2ccccc21)c1ccccc1Cl (centres undefined) | inconclusive: 28.2 µM [inhibitor, partial curve] | 
